This is an account of results in PubChem BioAssay AID1508642 (National Center for Advancing Translational Sciences (NCATS), 2021).

SMILES strings stand for the structures. Screen size: about 43,000 compounds; about 200 (0.47%) were called active. Roughly 12% stayed inconclusive and do not appear here. Calls come from the whole dose curve; as a rule, active = well fitted cell-killing curve with a large enough effect; inconclusive = small, poorly fitted or top-dose-only effect, or effect the other way; inactive = flat fitted curve, though single readings scatter. Some of the results follow.
% is set by controls: 0 for no effect and ±100 for the full control effect.

The nature of the experiment: Cell viability qHTS assay in S16 Pmp22-F2sN cells. Note: nearly all actives have a fitted effect of over 65% in size. The settings on record: S16 Pmp22-F2sN Schwann cells (luciferase reporters placed in the Pmp22 gene) viability, CellTiter-Glo, 24 h; series mostly up to 57.5 µM; activity change, negative = cytotoxicity: at the top concentration. Summed up:
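Seed 500-1,000 S16 Pmp22-F2sN cells per well in phenol-red-free DMEM with 10% heat-inactivated FBS; pin-add 23 nL compound; incubate 24 h at 37C; add CellTiter-Glo, wait 15 min protected from light; read luminescence.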
For orientation: Quantitative high-throughput screening tests each substance at several concentrations.
Take `CCOc1ccc(C(=O)c2oc3ccccc3c2NC(=O)c2cc(-c3ccccc3)on2)cc1`: the “activity change, negative = cytotoxicity” value is inactive: 10.9%.
In the case of `Cc1ccc(NC(=O)C(Cc2ccccc2)n2cccc2)c(C)c1` (stereo unspecified) it was inactive: -1.21%.
In the case of `CSc1cccc(N2C(=O)N(CC(=O)NCc3ccccc3Cl)c3ccccc3S2(=O)=O)c1` it was inactive: 17.1%; in that of `CC(C)CCOc1ccc(Oc2nc(N(C)C)nc(N(C)C)n2)nn1`, inactive: -14.6%.
In the case of `COc1ccc2c(CNCc3cccs3)c(C(=O)O)n(Cc3ccc(F)cc3Cl)c2c1` it was inactive: 3.06%; in that of `COc1ccccc1-n1ncc2c(=O)[nH]c(SCC(=O)Nc3cccc(F)c3)nc21`, inactive: 6.16%; in that of `CCOc1ccccc1N(C)C(=O)Cn1cnc2onc(-c3ccc(F)cc3)c2c1=O`, inactive: 2.93%.
Consider `Cc1ccc(NC(=O)CSc2nc(-c3cccs3)cc(C(F)(F)F)n2)cc1C`, for which the “activity change, negative = cytotoxicity” value was inactive: -14.8%.
In the case of `COc1cc(-c2noc(-c3ccc(NC4CCCCC4)c([N+](=O)[O-])c3)n2)cc(OC)c1OC` it was inactive: 16.3%.
In the case of `CCCCCn1c(=N)c(S(=O)(=O)c2ccccc2)cc2c(=O)n3cccc(C)c3nc21`, the “activity change, negative = cytotoxicity” value was inactive: 12%.
In the case of `CC(C)Oc1cccc(C(=O)Nc2ccc(-c3nc4cc(Cl)cc(Cl)c4o3)cc2)c1` it was inactive: -4.72%.
On to `Cc1cccc2sc(N(Cc3cccnc3)C(=O)Cc3ccccc3)nc12`, for which the “activity change, negative = cytotoxicity” value is inactive: -13.2%.
In the case of `CCSc1nnc2c(n1)OC(c1ccc(OCC(=O)O)cc1)Nc1ccccc1-2` (stereo unspecified) it was inactive: 7.96%; in that of `O=C(CCC1N=C2c3ccccc3N=C(SCC(=O)Nc3ccccc3F)N2C1=O)NCc1cccs1` (stereo unspecified), inactive: -21.4%; in that of `CCOC(=O)C1=C(c2ccccc2)Nc2ncnn2C1c1ccc(Cl)cc1` (stereo unspecified), inactive: -12.2%.
In the case of `COc1ccc(S(=O)(=O)N(CCc2ccccc2)CC(=O)Nc2cc(C)ccc2C)cc1` it was inactive: -1.96%; in that of `Cc1cccc(NC(=O)CSc2cn(CC(=O)N3CCOCC3)c3ccccc23)c1`, inactive: 7.87%.
In the case of `CCc1ccc(NC(=O)C2CCN(S(=O)(=O)c3c(C)noc3/C=C/c3cccs3)CC2)cc1` it was inactive: 10.5%; in that of `CCn1cc(C(=O)NCCOC)c(=O)c2cc(S(=O)(=O)N3CCOCC3)ccc21`, inactive: -4.73%.
Consider `COc1ccc(CNC(=O)c2ccc3c(c2)NC(=O)C(CS(=O)(=O)Cc2ccccc2Cl)N3)cc1` (stereo unspecified), for which the “activity change, negative = cytotoxicity” value was inactive: -0.657%.
In the case of `CCOc1ccccc1CNC(=O)CN1C(=O)CCn2nc(-c3cn(C)c4ccccc34)cc21` it was inactive: 3.67%; in that of `O=C(c1ccc2c(c1)N(Cc1cccc(Cl)c1)C(=O)c1ccccc1S2(=O)=O)N1CCC(Cc2ccccc2)CC1`, inactive: -0.639%; in that of `COc1cc(Cl)c(C)cc1Nc1c2c(nc3ccccc13)CCC2`, inactive: 10.2%.
In the case of `Cc1nc2ccc(S(=O)(=O)N(CC(=O)Nc3ccc(Cl)cc3)Cc3ccccc3)cc2s1` it was inactive: -0.3%.
In the case of `CC(=O)Nc1ccc(S(=O)(=O)N2CCN(c3ccccc3)CC2)cc1` it was inactive: 16.1%; in that of `COc1ccc(C)cc1NC(=O)C1CCCN(S(=O)(=O)c2ccc3c(c2)oc(=O)n3C)C1` (stereo unspecified), inactive: 0.249%; in that of `COc1cccc(-c2nnc3n(CCc4ccccc4)c(=O)c4ccccc4n23)c1O`, inactive: -22.2%.
For `CCOC(=O)CC(=O)CSc1nc2ccccc2c(=O)n1CCc1ccccc1`, the “activity change, negative = cytotoxicity” value is inactive: -3.99%.
In the case of `COc1cccc(CNC(=O)CN(c2ccc(C(C)C)cc2)S(=O)(=O)c2c(C)n[nH]c2C)c1` it was inactive: -14.5%; in that of `Cn1c(=O)c(=O)n(C)c2cc(N3CCCC3)c(NC(=O)c3ccc(C(C)(C)C)cc3)cc21`, inactive: -2.93%.
In the case of `Cc1ccc(SCc2nc(-c3ccc(C(=O)NCc4ccccc4Cl)cc3)oc2C)cc1` it was inactive: -14.9%.
In the case of `CC(=O)Nc1cccc(NC(=O)C2(c3cccs3)CCOCC2)c1` it was inactive: 16.1%.
`Cn1cc(S(=O)(=O)N2CCCC2)cc1C(=O)Nc1ccc(C(F)(F)F)cc1`: the “activity change, negative = cytotoxicity” value was inactive: -5.67%.
In the case of `COc1ccccc1-c1nnc(C2CCN(S(=O)(=O)c3ccccc3)CC2)o1` it was inactive: 8.12%; in that of `O=C(Nc1ccc(NC(=O)c2ccc(Br)cc2)c(Cl)c1)c1ccc(Br)cc1`, inactive: 8.17%; in that of `COc1ccc(C(=O)Nc2nc3ccc(S(=O)(=O)N4CCCC4)cc3s2)cc1`, inactive: -0.687%.
As for `CCCCCn1c(=O)[nH]c2cc(C(=O)Nc3ccc(OC)c(OC)c3)ccc2c1=O`, the “activity change, negative = cytotoxicity” value was inactive: 3.62%.
With `COc1cccc(N2CCN(C(=O)Cn3cnc4onc(-c5ccc(F)cc5)c4c3=O)CC2)c1`, the “activity change, negative = cytotoxicity” value was inactive: -8.54%.
In the case of `COc1cccc(-c2nc(CS(=O)(=O)CC(=O)NCCCN3CCN(C)CC3)c(C)o2)c1` it was inactive: -1.37%; in that of `CCc1nn(CC(=O)N2CCN(c3cccc(C(F)(F)F)c3)CC2)c(=O)c2cc3occc3n12`, inactive: -4.12%.
In the case of `COc1cccc2cc(-c3nnc(-c4ccc(Cl)cc4)o3)c(=O)oc12` it was inactive: -0.0034%.
In the case of `COc1ccc(CCNC(=O)Cn2nnc(-c3cccc(C(F)(F)F)c3)n2)cc1OC` it was inactive: -3.5%.
Take `Cc1ccc(-n2nc(CO)c(C(=O)NCCO)n2)cc1`: the “activity change, negative = cytotoxicity” value is inactive: 9.16%.
In the case of `CC(CNC(=O)c1ccc(Cn2c(SCc3ccccc3)nc3cccnc32)cc1)c1ccccc1` (stereo unspecified) it was inactive: -5.52%.
In the case of `Cc1cccc(NS(=O)(=O)c2nnc(NC(=O)C3CCCCC3)s2)c1` it was inactive: -6.39%; in that of `COc1cc2[nH]c(=O)n(Cc3ccc(C(=O)N4CCN(c5cccc(C)c5C)CC4)cc3)c(=O)c2cc1OC`, inactive: 0.192%.
